From ChEMBL document CHEMBL3885881, “DrugMatrix” come the findings set out here.

The species named for the series is Rattus norvegicus. Description: DrugMatrix - Regimen: Daily Repeat. Also on record: regimen Daily Repeat, gender Male, age 6-8 weeks. It is filed as toxicity, organism-based, Sprague-Dawley. The following applies: in vivo, 0 mg/kg, dose level Control, vehicle 100 % SALINE.
[1] abbreviates: iv, 120 h, tissue Blood, time 5 day.

For part of its entries the source gives two or more results. The other results are left out here. There may be further records. The values listed for one entry are repeated measurements across runs, samples, wells, individuals or studies. Records carry a tag for their origin. A, B and so on number the origins entry by entry.

`C=CCO` [ALLYL ALCOHOL]: the “ABSOLUTE EOSINOPHIL” value (ip, 72 h, tissue Blood, route intraperitoneal, time 3 day) was 0 CELLS/uL [study A] and 15 CELLS/uL [study B].
With `CC(=O)[C@]1(O)Cc2c(O)c3c(c(O)c2[C@@H](O[C@H]2C[C@H](N)[C@H](O)[C@H](C)O2)C1)C(=O)c1ccccc1C3=O` [IDARUBICIN], under setting [1], the “ABSOLUTE BASOPHIL” value is 0.23 CELLS/uL [study A] and 0 CELLS/uL [study B]; the “ABSOLUTE EOSINOPHIL” value is 0.0375 CELLS/uL [study A] and 158.83 CELLS/uL [study B]; the “ABSOLUTE LYMPHOCYTE” value is 12.19 CELLS/uL [study A] and 13517.17 CELLS/uL [study B]; the “ABSOLUTE MONOCYTE” value is 0.66 CELLS/uL [study A] and 352.67 CELLS/uL [study B]. Besides, the NEUTROPHIL under setting [1] is 30.45% [study A] and 7.17% [study B]. The LIPASE (iv, 120 h, tissue Plasma, time 5 day) was 50 u/L [study A] and 8.67 u/L [study B].
